Laboratory results reported in ChEMBL document CHEMBL4888484, “Replenishing the malaria drug discovery pipeline: Screening and hit evaluation of the MMV Hit Generation Library 1 (HGL1) against asexual blood stage Plasmodium falciparum ,using a nano luciferase reporter read-out” (2022).
The whole screen tested about 150,000 compounds, of which about 540 (0.36%) showed an effect of 50% or more. This is one part of the list.

tested on: Plasmodium falciparum; experiment: Primary screen in NF54 nanoGlo assay, in single point, at 2uM, 72h; a lower Z score goes with more inhibition; format: functional, Erythrocyte; settings: timepoint 72 hour

| Structure (SMILES) | % Inhibition [%] | Z score |
| --- | --- | --- |
| CCC(c1ccc(F)cc1)c1nnc(-c2cccc(C3CCOC3)c2)o1 (centres undefined) | -21 | 2.27 |
| CNC(=O)Cc1nc(CNc2ccc(F)cc2OCC2CC2)cs1 | -13 | 1.5 |
| CCc1noc(C)c1C(=O)N(C[C@H](O)c1ccccc1)C1CCCCC1 | -7 | 1.46 |
| CC(=O)N1c2ccccc2C[C@H]1c1nc(-c2cc(OC(F)F)ccc2F)no1 | 8 | -1.35 |
| OCC1(CCCc2ccccc2)CCN(C2Cc3ccccc3C2)CC1 | -15 | 1.33 |
| Cc1ccc(F)cc1C(=O)N1C[C@@H]2CC[C@H]1CN(S(=O)(=O)N(C)C)C2 | -10 | 0.88 |
| CCCNC(=O)CNC(=O)CCc1ccco1 | -9 | 0.92 |
| N#Cc1ccccc1Cn1cncc(-c2ccccc2)c1=O | -10 | 1.62 |
| CN1CCN(C(=O)c2cccc(CNc3ccncn3)c2)C[C@@]12CCOC2 | 2 | -0.3 |
| COCCn1ccc(NC(=O)Nc2ccncc2C)n1 | -14 | 2.62 |
| CCCNC(=O)[C@@H](NC(=O)c1ccc(OC)cc1)C1CCN(C(=O)CC(C)(C)C)CC1 | 4 | -0.58 |
| C[C@@H](NC(=O)c1cc(N2CCNC(=O)C2)ccn1)C(F)(F)F | 4 | -0.68 |
| CC[C@@H](C(=O)O)N1CCOc2ccccc2C1 | -8 | 0.94 |
| COc1ccc(C(=O)Nc2ccc(N3CCCN(Cc4cc(OC)cc(OC)c4)C3=O)cc2)cc1 | -14 | 1.61 |
| C[C@H](Oc1ccccc1)C(=O)N1CCC(CCOc2cccnc2)CC1 | -14 | 2.66 |
| CN(Cc1nccn1CC(F)(F)F)C(=O)CN1Cc2ccccc2C1 | 4 | -0.6 |
| CCOC(=O)c1ccc2c(c1)nc(-c1ccccc1NS(=O)(=O)c1ccc(OCC)cc1)n2CC | -14 | 2 |
| O=C(CN1CCOC1=O)N1CCC2(CC1)CC(=O)N(C/C=C/c1ccccc1)C2 | -1 | 0.14 |
| Nc1nn(-c2cc(C(=O)O)cc(S(=O)(=O)N3CCCCCC3)c2)c2ccc(F)cc12 | -19 | 2.04 |
| CCn1c([C@H]2CCN(S(=O)(=O)c3c(C)noc3C)C2)nc2cccnc21 | -9 | 1.06 |
| Cc1ccc2cc(C(=O)OCCc3cn[nH]c3)ccc2n1 | -18 | 2.03 |
| Cc1n[nH]c(C)c1CCCNC(=O)Cc1ccncc1 | -22 | 2.84 |

| Structure (SMILES) | % Inhibition [%] | Z score |
| --- | --- | --- |
| Cc1[nH]c(-c2ccc(F)cc2)cc1C(=O)NC1CCCCC1C (centres undefined) | 0 | -0.05 |
| Cc1ccccc1CN1CCCN(C(=O)Nc2nccs2)CC1 | -6 | 1.22 |
| CC(CC(=O)N1CCCC(c2nnn[nH]2)C1)c1ccccc1F (centres undefined) | -2 | 0.34 |
| Cc1ccc([C@@H](NC(=O)N2CCCCCC2)C(Cl)(Cl)Cl)cc1F | 7 | -0.93 |
| N#Cc1c[nH]c(C(=O)NC2(c3nnc[nH]3)CCC2)c1 | 2 | -0.19 |
| C[C@@H](c1nccs1)N(C)C(=O)CCN1CCCCO1 | -9 | 0.86 |
| CCc1cc(CN[C@@H](C)c2ccc(OC)cc2)on1 | -9 | 1.38 |
| C[C@@H](c1ccc(Cl)cc1Cl)N(C)Cc1cc(-c2ccco2)on1 | -7 | 0.71 |
| CN(Cc1ccccc1)C(=O)Cn1cc(S(=O)(=O)Cc2cccc(Cl)c2)c2ccccc21 | -9 | 1.5 |
| O=C(CCc1cccc(F)c1F)N(CC(F)(F)F)c1ccccn1 | 4 | -0.4 |
| CC(C)(C)[C@H]1OCC[C@@H]1c1noc(-c2ccc3c(c2)CCCCC3=O)n1 | 23 | -2.07 |
| Cc1cc(C)cc([C@@H](O)COc2cc(C)c(C)nn2)c1 | -8 | 1.19 |
| CCn1c(C)nnc1CNC1CCCCC1n1cccn1 (centres undefined) | -1 | 0.17 |
| Cc1ccc(O)c(CNc2ccc(S(=O)(=O)Nc3nccs3)cc2)c1 | -3 | 0.37 |
| CNC(=O)Nc1ccc(Br)cc1-c1nc(C2CC2)no1 | -10 | 1.1 |
| CC[C@@H](C(=O)NCc1cnn2cccnc12)n1cccn1 | -13 | 1.29 |
| C[C@@H](NC(=O)Nc1ccc(F)cn1)c1ccccc1 | -10 | 1.08 |
| O=C1CC[C@@]2(CCCN(C(=O)CC3CCCC3)C2)CN1CCc1c[nH]cn1 | 4 | -0.48 |
| O=C(Nc1nc(-c2ccccc2)cs1)N1CCC[C@@H]1CO | -10 | 1.58 |
| Cc1nc([C@@H]2CCCN2Cc2c(C)nsc2C)[nH]c1C | -10 | 1.19 |
| O=C(CNCC1CC1)N1CCN(c2ccccc2)CC1 | -12 | 1.68 |
| CCc1c(C)nc(N)nc1N1CCOCC1 | -2 | 0.26 |

| Structure (SMILES) | % Inhibition [%] | Z score |
| --- | --- | --- |
| C=CCNC(=O)N1CCC2(CC1)CCS(=O)(=O)CC2 | -4 | 0.45 |
| CCn1cc(CN(C)[C@@H](C)C(=O)N(C)C)cn1 | -17 | 2.04 |
| CCn1c([C@H](C)Oc2ccccc2F)nnc1N1CCC(OC)CC1 | -1 | 0.18 |
| CC(C)[C@H](NC(=O)c1ccc(-c2cc(N)ncn2)cc1)c1nccn1C | -3 | 0.53 |
| CC1CN(C(=O)c2cnc3ccccc3n2)CC(C)O1 (centres undefined) | 0 | -0.02 |
| Cc1ccnc(Oc2cccc(C(=O)N3CCCC3)c2)n1 | -4 | 0.55 |
| CCC(Oc1ccc2c(c1)C(c1ccc(C)cc1)N(C(=O)CC(C)C)CC2)C(=O)N(C)Cc1ccco1 (centres undefined) | -17 | 2.62 |
| Cc1cc(Br)ccc1CN[C@@H](C)CC(=O)N(C)C | 1 | -0.17 |
| CC(C)(C)n1ncnc1CC[C@@H]1NC(=O)NC1=O | -8 | 1.02 |
| Cn1c(-c2ccncc2)nc2cc(C(=O)NCCc3cccs3)cc(NC(=O)C3CCC3)c21 | -7 | 0.78 |
| Nc1ccnc2c(-c3ccncc3)cccc12 | -2 | 0.26 |
| CCCN1CCC[C@H](Nc2ncc(CC)cn2)C1 | -3 | 0.48 |
| COc1ccsc1S(=O)(=O)N(C)c1cnccn1 | -3 | 0.35 |
| Cc1ccc(NC(=O)N2Cc3cncnc3C2)cc1C | -13 | 2.26 |
| CC(C)n1ccc(CN2CCCN(CC(=O)N3CCCC3)CC2)n1 | -1 | 0.19 |
| O=C1N(c2cccc(F)c2)Cc2nn(Cc3cccc(Cl)c3)c(=O)n21 | -5 | 0.7 |
| COc1cc(COCC2CCN(S(=O)(=O)N(C)C)CC2)cc(OC)c1 | 5 | -0.67 |
| CC(=O)NC(C)(C)Cc1cccc(Br)c1 | -21 | 2.86 |
| O=C(Nc1ccncc1)N[C@H]1CCN(C2CC2)C1 | -3 | 0.42 |
| Cc1cccc(CNC[C@H]2CC[C@H](C(N)=O)CC2)c1C | 14 | -1.81 |
| Cc1cc(S(=O)(=O)N[C@H]2CCc3cc(F)ccc32)cnc1N | 7 | -0.81 |
| Cc1cnc(N2CCN(CC3CCC3)CC2)nc1 | -8 | 1 |

| Structure (SMILES) | % Inhibition [%] | Z score |
| --- | --- | --- |
| COc1cccc(C(=O)N2CC3(CCCO3)C2C2CC2)c1 (centres undefined) | -3 | 0.38 |
| CNC(=O)C[C@H]1CCN(C(=O)COC(C)C)C1 | 2 | -0.31 |
| COC(=O)c1cc(C2CC2)nc2c1c(=O)n(CC(=O)NC1CCCCC1)c(=O)n2C | -6 | 0.81 |
| Cc1cccc2c(N3CCCN(S(C)(=O)=O)CC3)c(C#N)cnc12 | -1 | 0.08 |
| C=CCN(C)C(=O)NCCC(=O)Nc1ccc(Br)cc1 | -7 | 1.17 |
| C/C=C/CC(=O)NCc1nc(-c2cccc(F)c2)c(-c2ccccn2)[nH]1 | -10 | 1.17 |
| CCC(C)N1C(=O)CCC1c1c(C)n(C)c2ccccc12 (centres undefined) | -8 | 0.89 |
| Cc1ccc(-c2ccc(=O)n(CCNC(=O)Nc3cccc(C)c3)n2)cc1 | 8 | -1.24 |
| O=C1CCc2cc(S(=O)(=O)N3CCCCCC3)cc3c2N1CCC3 | -13 | 1.71 |
| O=C(C1c2ccccc2Oc2ccccc21)N1CC(Nc2cnccn2)C1 | -7 | 0.83 |
| CCNC(=O)C1CCCN(c2nc(OC)nc(N3CCCC(C(=O)NCC)C3)n2)C1 (centres undefined) | 4 | -0.5 |
| Cc1ccc(NC(=O)[C@@H]2CC=CCC2)c(-c2nc[nH]n2)c1 | 0 | 0.05 |
| COc1ccc(-c2c(OC)nsc2CO)cn1 | -5 | 0.59 |
| O=C(COc1ccccc1)NCC#Cc1ccc(C(F)(F)F)cc1 | -10 | 1.74 |
| CCC1(CC)NC(=O)N(Cc2c(C)noc2C)C1=O | 0 | -0.03 |
| CC(C)Oc1cccc(-c2nc(=O)c(CCC(=O)N3CCN(C(C)C)CC3)n[nH]2)c1 | 3 | -0.45 |
| COc1cc(C(=O)N2C[C@@H](CO)C[C@@H](CN3CCOCC3)C2)ccn1 | -1 | 0.11 |
| Cc1noc(CCCNC(=O)N(Cc2ccccc2F)C2CCC2)n1 | -11 | 1.72 |
| COCCN(Cc1ccsc1)C(=O)NC1CCOCC1 | -11 | 1.21 |
| COc1cccc(CNc2c(C)n(C)n(-c3ccccc3)c2=O)c1O | -10 | 1.39 |
| Cc1cccc(C(=O)Nc2cccc(CCc3nc4ccccc4n3C)c2)c1 | -10 | 1.12 |
